Publication PMC4490372, “Architecture of TFIIIC and its role in RNA polymerase III pre-initiation complex assembly” (Nature Communications, 2015)
Residue numbers refer to the chain shown, from its start. Results are given in words; binding and its absence hold for the method and conditions named. Some entries that bind do so weakly or less than the wild type. Sequences can lack the tags named with a protein.

Key:
[1] = target: T1, GST-tagged τ131 (123–566), wild type (S. cerevisiae) (UniProt P33339); experiment: pull-down; competition of τ138 and Bdp1 with the shorter TPR array of τ131; data not shown; both purified
T1 sequence: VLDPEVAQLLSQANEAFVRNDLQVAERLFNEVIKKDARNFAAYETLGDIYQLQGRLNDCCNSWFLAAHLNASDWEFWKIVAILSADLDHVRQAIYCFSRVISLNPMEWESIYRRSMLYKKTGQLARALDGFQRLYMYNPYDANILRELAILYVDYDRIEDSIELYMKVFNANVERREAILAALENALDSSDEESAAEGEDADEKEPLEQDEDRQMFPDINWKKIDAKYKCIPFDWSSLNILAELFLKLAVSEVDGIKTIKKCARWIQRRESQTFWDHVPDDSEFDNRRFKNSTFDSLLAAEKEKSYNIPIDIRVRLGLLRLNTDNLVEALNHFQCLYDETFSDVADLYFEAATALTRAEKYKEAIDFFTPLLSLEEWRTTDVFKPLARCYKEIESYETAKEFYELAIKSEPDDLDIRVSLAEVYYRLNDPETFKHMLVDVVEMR

[2] = target: T2, GST-tagged τ131 (123–566) L469K (S. cerevisiae) (UniProt P33339); experiment: pull-down; 15 μg GST-tagged τ131 on Glutathione Sepharose 4B; 300 nM τ138 or Bdp1, or 1 μM Brf1–TBP; 50 mM Tris pH 7.5, 150 mM NaCl, 2 mM DTT, 0.1% Tween20; 4 °C, 4 h; both purified
T2 sequence: T1 sequence with L347K

[3] = target: T3, GST-tagged τ131 (123–566) D468K (S. cerevisiae) (UniProt P33339); experiment: as above
T3 sequence: T1 sequence with D346K

[4] = target: T1, GST-tagged τ131 (123–566), wild type (S. cerevisiae); experiment: as above

binding [1]: binds | binding [2]: no binding (tested: 300 nM τ138) | binding [3]: no binding (tested: 300 nM τ138) | binding [4]: binds
B1: τ138 (546–693), eWH-τIR (domain or fragment, S. cerevisiae, UniProt P34111 546-693, looked up)
chain: SARSLRSLQRQRAILKVMNTIGGVAYLREQFYESVSKYMGSTTTLDKKTVRGDVDLMVESEKLGARTEPVSGRKIIFLPTVGEDAIQRYILKEKDSKKATFTDVIHDTEIYFFDQTEKNRFHRGKKSVERIRKFQNRQKNAKIKASDD
notes: the cloning of this construct is not described; also called τ138 (eWH-τIR); central region of τ138; source: purified; expression of this construct not described
